Assay results reported in the supplement of paper PMC8728848.
Some of the results follow.

Columns and labels:
Experiment in all cases: glycan array binding signal (z-score within array); higher = stronger binding
Details in all cases: glycan notation: IUPAC condensed, linker removed
Gal(a1-4)GlcNAc = target: Gal(a1-4)GlcNAc
Procedure, shortened: (§1)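 Arrays were curated from the Consortium for Functional Glycomics database, 3228 in total, and kept only where the protein sequence was available. Binding is expressed as a within-array Z-score. This score was averaged across arrays of the same protein sequence at different concentrations or buffers and across linkers, and negative values can be read as non-binding.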

Gal(a1-6)Glc = target: Gal(a1-6)Glc
Procedure, shortened: as §1

Gal(b1-2)Gal = target: Gal(b1-2)Gal
Procedure, shortened: as §1

Gal(b1-3)Gal = target: Gal(b1-3)Gal
Procedure, shortened: as §1

Gal(b1-3)GalNAc = target: Gal(b1-3)GalNAc
Procedure, shortened: as §1

[1] = target: Gal(b1-3)GalNAc(b1-3)Gal(a1-4)Gal(b1-4)Glc
Procedure, shortened: as §1

[2] = target: Gal(b1-3)GalNAc(b1-3)Gal(b1-4)Glc
Procedure, shortened: as §1

[3] = target: Gal(b1-3)GalNAc(b1-3)Gal(b1-4)GlcNAc
Procedure, shortened: as §1

[4] = target: Gal(b1-3)GalNAc(b1-4)Gal(b1-4)Glc
Procedure, shortened: as §1

[5] = target: Gal(b1-3)GalNAc(b1-4)[Neu5Ac(a2-3)]Gal(b1-4)Glc
Procedure, shortened: as §1

[6] = target: Gal(b1-3)[Fuc(a1-4)]GlcNAc
Procedure, shortened: as §1

[7] = target: Gal(b1-3)[Fuc(a1-4)]GlcNAc(b1-3)Gal(b1-4)GlcNAc
Procedure, shortened: as §1

[8] = target: Gal(b1-3)[Fuc(a1-4)]GlcNAc(b1-3)Gal(b1-4)[Fuc(a1-3)]GlcNAc
Procedure, shortened: as §1

[9] = target: Gal(b1-3)[GlcNAc(b1-6)]GalNAc
Procedure, shortened: as §1

[10] = target: Gal(b1-3)[GlcNAc(b1-6)]GlcNAc
Procedure, shortened: as §1

[11] = target: Gal(b1-3)[Neu5Ac(a2-6)]GalNAc
Procedure, shortened: as §1

[12] = target: Gal(b1-3)[Neu5Ac(a2-6)]GlcNAc
Procedure, shortened: as §1

[13] = target: Gal(b1-3)[Neu5Ac(a2-6)]GlcNAc(a1-4)Gal(b1-4)Glc
Procedure, shortened: as §1

[14] = target: Gal(b1-3)[Neu5Ac(b2-6)]GlcNAc
Procedure, shortened: as §1

[15] = target: Gal(b1-4)GalNAc(a1-3)[Fuc(a1-2)]Gal(b1-4)GlcNAc
Procedure, shortened: as §1

[16] = target: Gal(b1-4)GalNAc(b1-3)[Fuc(a1-2)]Gal(b1-4)GlcNAc
Procedure, shortened: as §1

Gal(b1-4)Glc = target: Gal(b1-4)Glc
Procedure, shortened: as §1

Gal(b1-4)Glc6S = target: Gal(b1-4)Glc6S
Procedure, shortened: as §1

Gal(b1-4)GlcNAc = target: Gal(b1-4)GlcNAc
Procedure, shortened: as §1

[17] = target: Gal(b1-4)GlcNAc(b1-2)Man(a1-3)[Gal(b1-4)GlcNAc(b1-2)Man(a1-6)]Man(b1-4)GlcNAc(b1-4)GlcNAc
Procedure, shortened: as §1

[18] = target: Gal(b1-4)GlcNAc(b1-3)Gal(b1-4)Glc
Procedure, shortened: as §1

[19] = target: Gal(b1-4)GlcNAc(b1-3)Gal(b1-4)GlcNAc
Procedure, shortened: as §1

[20] = target: Gal(b1-4)GlcNAc(b1-3)Gal(b1-4)GlcNAc(b1-3)Gal(b1-4)GlcNAc
Procedure, shortened: as §1

[21] = target: Gal(b1-4)GlcNAc(b1-3)Gal(b1-4)[Fuc(a1-3)]GlcNAc(b1-3)Gal(b1-4)[Fuc(a1-3)]GlcNAc
Procedure, shortened: as §1

[22] = target: Gal(b1-4)GlcNAc(b1-3)GalNAc
Procedure, shortened: as §1

[23] = target: Gal(b1-4)GlcNAc(b1-3)[Gal(b1-4)GlcNAc(b1-6)]GalNAc
Procedure, shortened: as §1

[24] = target: Gal(b1-4)GlcNAc(b1-6)GalNAc
Procedure, shortened: as §1

[25] = target: Gal(b1-4)GlcNAc(b1-6)[Gal(b1-3)]GalNAc
Procedure, shortened: as §1

[26] = target: Gal(b1-4)GlcNAc(b1-6)[Gal(b1-3)]GlcNAc
Procedure, shortened: as §1

Gal3S(b1-3)GalNAc = target: Gal3S(b1-3)GalNAc
Procedure, shortened: as §1

Gal3S(b1-3)GlcNAc = target: Gal3S(b1-3)GlcNAc
Procedure, shortened: as §1

[27] = target: Gal3S(b1-3)[Fuc(a1-4)]GlcNAc
Procedure, shortened: as §1

Gal3S(b1-4)Glc = target: Gal3S(b1-4)Glc
Procedure, shortened: as §1

Gal3S(b1-4)Glc6S = target: Gal3S(b1-4)Glc6S
Procedure, shortened: as §1

Gal3S(b1-4)GlcNAc = target: Gal3S(b1-4)GlcNAc
Procedure, shortened: as §1

Gal3S(b1-4)GlcNAc6S = target: Gal3S(b1-4)GlcNAc6S
Procedure, shortened: as §1

Gal3S6S(b1-4)GlcNAc = target: Gal3S6S(b1-4)GlcNAc
Procedure, shortened: as §1

Gal3S6S(b1-4)GlcNAc6S = target: Gal3S6S(b1-4)GlcNAc6S
Procedure, shortened: as §1

Gal4S(b1-4)GlcNAc = target: Gal4S(b1-4)GlcNAc
Procedure, shortened: as §1

Gal4S6S(b1-4)GlcNAc = target: Gal4S6S(b1-4)GlcNAc
Procedure, shortened: as §1

B1: RNase 1 (Bos taurus), P61823 (protein)
chain: MALKSLVLLSLLVLVLLLVRVQPSLGKETAAAKFERQHMDSSTSAASSSNYCNQMMKSRNLTKDRCKPVNTFVHESLADVQAVCSQKNVACKNGQTNCYQSYSTMSITDCRETGSSKYPNCAYKTTQANKHIIVACEGNPYVPVHFDASV
Gal(a1-4)GlcNAc
  glycan array binding signal (z-score): -0.225
Gal(a1-6)Glc
  glycan array binding signal (z-score): 0.634
Gal(b1-2)Gal
  glycan array binding signal (z-score): 0
Gal(b1-3)Gal
  glycan array binding signal (z-score): -0.006
Gal(b1-3)GalNAc
  glycan array binding signal (z-score): -0.191
[1]
  glycan array binding signal (z-score): 0.495
[2]
  glycan array binding signal (z-score): 0.641
[3]
  glycan array binding signal (z-score): -0.176
[4]
  glycan array binding signal (z-score): -0.202
[5]
  glycan array binding signal (z-score): 0.026
[6]
  glycan array binding signal (z-score): -0.204
[7]
  glycan array binding signal (z-score): -0.135
[8]
  glycan array binding signal (z-score): -0.114
[9]
  glycan array binding signal (z-score): -0.236
[10]
  glycan array binding signal (z-score): -0.197
[11]
  glycan array binding signal (z-score): -0.232
[12]
  glycan array binding signal (z-score): -0.195
[13]
  glycan array binding signal (z-score): 0.379
[14]
  glycan array binding signal (z-score): -0.224
[15]
  glycan array binding signal (z-score): -0.115
[16]
  glycan array binding signal (z-score): -0.218
Gal(b1-4)Glc
  glycan array binding signal (z-score): -0.073
Gal(b1-4)Glc6S
  glycan array binding signal (z-score): -0.14
Gal(b1-4)GlcNAc
  glycan array binding signal (z-score): -0.196
[17]
  glycan array binding signal (z-score): -0.171
[18]
  glycan array binding signal (z-score): 0.369
[19]
  glycan array binding signal (z-score): -0.165
[20]
  glycan array binding signal (z-score): -0.224
[21]
  glycan array binding signal (z-score): -0.101
[22]
  glycan array binding signal (z-score): -0.22
[23]
  glycan array binding signal (z-score): -0.216
[24]
  glycan array binding signal (z-score): -0.221
[25]
  glycan array binding signal (z-score): -0.205
[26]
  glycan array binding signal (z-score): -0.197
Gal3S(b1-3)GalNAc
  glycan array binding signal (z-score): -0.186
Gal3S(b1-3)GlcNAc
  glycan array binding signal (z-score): -0.127
[27]
  glycan array binding signal (z-score): -0.179
Gal3S(b1-4)Glc
  glycan array binding signal (z-score): -0.184
Gal3S(b1-4)Glc6S
  glycan array binding signal (z-score): -0.033
Gal3S(b1-4)GlcNAc
  glycan array binding signal (z-score): -0.17
Gal3S(b1-4)GlcNAc6S
  glycan array binding signal (z-score): -0.098
Gal3S6S(b1-4)GlcNAc
  glycan array binding signal (z-score): -0.091
Gal3S6S(b1-4)GlcNAc6S
  glycan array binding signal (z-score): -0.178
Gal4S(b1-4)GlcNAc
  glycan array binding signal (z-score): 0.34
Gal4S6S(b1-4)GlcNAc
  glycan array binding signal (z-score): -0.035
